Measured values published in PubChem BioAssay AID1794844 (National Center for Advancing Translational Sciences (NCATS), 2023).
Among all 2,800 compounds or so, fewer than 10 were called active. The inconclusive results got no clear call from the source; some entries with a clear call stand among them for comparison. Calls come from the whole dose curve; as a rule, active = well fitted inhibition curve with a large enough effect; inconclusive = small, poorly fitted or top-dose-only effect; inactive = no such curve, though single readings can be large or run the other way. Potencies beside an inconclusive call are fits to weak or partial responses and may not hold up.

molecular target: Metallo-beta-lactamase type 2 (Klebsiella pneumoniae) (UniProt C7C422); assay: qHTS to identify inhibitors of the New Delhi Metallo-beta-lactamase (NDM): Nitrocefin screen against the machine-based learning selections.; conditions: NDM-1 enzyme, nitrocefin hydrolysis, absorbance 485 nm; series mostly up to 38.4 µM
Outline: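 NDM-1 (2 nM final) in 50 mM HEPES pH 7.0, 1 uM Zn2SO4, 0.01% Tween20 was preincubated with compounds for >30 min. Nitrocefin (16.7 uM final) was read at 485 nm after 15 min, and meropenem (50 uM final) at 300 nm after 30 min.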
Potency is the fitted concentration of half-maximal effect; tags give direction and shape of the fitted curve.

Sequence of UniProt C7C422 (C7C422 whole entry, looked up): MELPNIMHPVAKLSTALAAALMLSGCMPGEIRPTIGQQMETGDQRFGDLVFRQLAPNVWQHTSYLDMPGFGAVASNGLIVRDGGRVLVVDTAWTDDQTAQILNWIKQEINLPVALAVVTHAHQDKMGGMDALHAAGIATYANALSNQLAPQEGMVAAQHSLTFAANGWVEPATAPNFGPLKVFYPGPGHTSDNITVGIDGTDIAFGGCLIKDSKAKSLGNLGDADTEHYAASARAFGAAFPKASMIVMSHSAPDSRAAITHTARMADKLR

Q: For O=S(=O)(c1cc(F)ccc1F)N1CCCC1c1nncn1Cc1ccncc1 (configuration not stated), which Potency is on record?
A: inconclusive: 23.7 µM [inhibitor, partial curve, poor fit]

Q: Clc1cccc(-c2cnc([C@@H]3COCCN3Cc3cnc[nH]3)[nH]2)c1 was tested. Which Potency did it give?
A: active: 13.7 µM

Q: O=C1CN(C(=O)[C@H]2CN(Cc3ccccc3)C[C@H]2C(=O)O)CCN1 was tested. Which Potency did it give?
A: inconclusive: 29.9 µM [inhibitor, single point]

Q: Which Potency does the source give for O=C(NC[C@H]1O[C@@H](CO)[C@@H](O)[C@H]1N1CCN(c2ccc(F)cc2)CC1)c1ccccc1 here?
A: inconclusive: 21.2 µM [inhibitor, single point]

Q: How did the Potency turn out when Cc1ccc(NC(=O)N2Cc3[nH]cnc3C[C@H]2c2nc(-c3ccc(Cl)cc3)no2)cc1 was run?
A: inconclusive: 43.3 µM [inhibitor, single point]

Q: COc1ccccc1C(O)c1nc(Nc2ccc(C(C)C)cc2)n[nH]1 (configuration not stated) was tested. Which Potency did it give?
A: inactive

Q: How did the Potency turn out when OCc1cccc(-c2ccc3ncc(Nc4cccc(F)c4)n3n2)c1 was run?
A: inactive

Q: CC(=O)NC1(C)CCN(Cc2ccc(-c3cccc4ncccc34)cc2)C1 (configuration not stated) was tested. Which Potency did it give?
A: inconclusive: 21.7 µM [inhibitor, partial curve, poor fit]

Q: CCO[C@H]1C[C@@H](O)C12CCN(C(=O)c1cc(S(N)(=O)=O)ccc1F)CC2 was tested. Which Potency did it give?
A: inactive

Q: Cc1ccc(-c2nc(CNC(=O)[C@@H]3C[C@@H](O)CN3)[nH]c2-c2ccccn2)cc1 was tested. Which Potency did it give?
A: inconclusive: 21.2 µM [inhibitor, single point]

Q: Which Potency does the source give for Cc1ccc(-c2nc(CNC(=O)C3(N)CCC3)[nH]c2-c2ccccn2)cc1 here?
A: inconclusive: 29.9 µM [inhibitor, single point]

Q: For COCC(=O)N1CCc2nc(N(C)CCc3ccncc3)[nH]c(=O)c2CC1, which Potency is on record?
A: inconclusive: 0.0009 µM [inhibitor]

Q: Fc1ccc(-c2noc([C@@H]3Cc4nc[nH]c4CN3Cc3ccccc3)n2)cc1Cl was tested. Which Potency did it give?
A: inconclusive: 43.3 µM [inhibitor, single point]

Q: How did the Potency turn out when COCc1cn(C[C@H]2C[C@@H](NC(=O)Nc3cccnc3)[C@H](O)[C@@H]2O)nn1 was run?
A: inconclusive: 13.7 µM [inhibitor, full curve]

Q: How did the Potency turn out when CN(CCCNC1CCC2(CCNCC2)CC1)c1ccccc1 was run?
A: inconclusive: 11.9 µM [inhibitor, partial curve]

Q: Which Potency does the source give for CC1(COc2cccnc2)COc2ccc(C(=O)Nc3ccc4[nH]ccc4c3)cc2N1 (configuration not stated) here?
A: inconclusive: 43.3 µM [inhibitor, partial curve, poor fit]

Q: How did the Potency turn out when Cn1cnc(C(=O)N2CCC(OC3CCN(S(C)(=O)=O)CC3)CC2)c1 was run?
A: inconclusive: 9.45 µM [inhibitor, partial curve]
